Measured values taken from the supplement of paper PMC9151546.
Many values rest on one well or one pass, so single values are uncertain.

How the values were obtained:
[1] = test system: CHO-K1; test: micronucleus frequency (% of nucleated events); higher = more micronuclei (genotoxic)
[2] = test system: CHO-K1; test: hypodiploid nuclei frequency (% of nucleated events); higher = more hypodiploid events (aneugenic)
Description: (§1)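 Flow-cytometric in vitro micronucleus assay (Litron MicroFlow) in CHO-K1 cells in 96-well plates, 19 concentrations (4.5-200 µM, n=1 per concentration). Without S9, cells were exposed for 24 h and sampled at 48 h. With Aroclor 1254-induced rat liver S9, cells were exposed for 3-4 h and sampled at 27-28 h. Read-outs are %MN and %hypodiploid nuclei relative to nucleated events, and relative survival as the nuclei-to-bead ratio versus the 1% DMSO vehicle control (x100).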

[3] = test system: CHO-K1; test: relative survival (nuclei to bead ratio vs DMSO control) (% of vehicle control); higher = more surviving cells
Description: as §1
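For hypodiploid nuclei frequency (% of nucleated events) in this document: hypodiploid nuclei gated on a flow cytometer with 488 nm excitation after SYTOX Green staining, cultures at 37 °C, positive controls vinblastine without S9 and cyclophosphamide with S9.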
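For micronucleus frequency (% of nucleated events) in this document: cells lysed with nuclei stained by SYTOX Green, then micronucleus-gated events counted against nucleated events by flow cytometry with 488 nm excitation.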
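For relative survival (nuclei to bead ratio vs DMSO control) in this document: Lysed-cell nuclei stained with SYTOX Green and counted against counting beads by flow cytometry at 488 nm excitation, with vinblastine (no S9) and cyclophosphamide (plus S9) as positive controls.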

CC1(C)C(=O)N(Cl)C(=O)N1Cl [1,3-Dichloro-5,5-dimethylhydantoin]
Conditions	hypodiploid nuclei frequency, [2] [%]	micronucleus frequency, [1] [%]	relative survival, [3]
concentration: 4.5 (µM), S9 metabolic activation: with S9, exposure time: 3-4 hours	0.28	1.9	143
concentration: 4.5 (µM), S9 metabolic activation: without S9, exposure time: 24 hours	0.6	1.78	103
concentration: 5.63 (µM), S9 metabolic activation: with S9, exposure time: 3-4 hours	0.32	2.42	133
concentration: 5.63 (µM), S9 metabolic activation: without S9, exposure time: 24 hours	0.7	1.9	89
concentration: 7.04 (µM), S9 metabolic activation: with S9, exposure time: 3-4 hours	0.2	2.76	125
concentration: 7.04 (µM), S9 metabolic activation: without S9, exposure time: 24 hours	0.68	2.36	116
concentration: 8.8 (µM), S9 metabolic activation: with S9, exposure time: 3-4 hours	0.28	1.94	130
concentration: 8.8 (µM), S9 metabolic activation: without S9, exposure time: 24 hours	0.52	1.44	109
concentration: 11 (µM), S9 metabolic activation: with S9, exposure time: 3-4 hours	0.3	2.08	137
concentration: 11 (µM), S9 metabolic activation: without S9, exposure time: 24 hours	0.72	1.52	89.8
concentration: 13.7 (µM), S9 metabolic activation: with S9, exposure time: 3-4 hours	0.46	2.52	121
concentration: 13.7 (µM), S9 metabolic activation: without S9, exposure time: 24 hours	0.68	1.98	137
concentration: 17.2 (µM), S9 metabolic activation: with S9, exposure time: 3-4 hours	0.24	2.16	113
concentration: 17.2 (µM), S9 metabolic activation: without S9, exposure time: 24 hours	0.72	2.06	117
concentration: 21.5 (µM), S9 metabolic activation: with S9, exposure time: 3-4 hours	0.22	1.9	106
concentration: 21.5 (µM), S9 metabolic activation: without S9, exposure time: 24 hours	0.7	2.52	114
concentration: 26.8 (µM), S9 metabolic activation: with S9, exposure time: 3-4 hours	0.28	2.34	147
concentration: 26.8 (µM), S9 metabolic activation: without S9, exposure time: 24 hours	0.86	2.16	79.3
concentration: 33.6 (µM), S9 metabolic activation: with S9, exposure time: 3-4 hours	0.3	2.26	115
concentration: 33.6 (µM), S9 metabolic activation: without S9, exposure time: 24 hours	0.88	2.52	106
concentration: 41.9 (µM), S9 metabolic activation: with S9, exposure time: 3-4 hours	0.2	2.08	112
concentration: 41.9 (µM), S9 metabolic activation: without S9, exposure time: 24 hours	0.94	2.52	92.9
concentration: 52.4 (µM), S9 metabolic activation: with S9, exposure time: 3-4 hours	0.36	1.56	133
concentration: 52.4 (µM), S9 metabolic activation: without S9, exposure time: 24 hours	0.66	2.22	72.9
concentration: 65.5 (µM), S9 metabolic activation: with S9, exposure time: 3-4 hours	0.28	1.66	83.8
concentration: 65.5 (µM), S9 metabolic activation: without S9, exposure time: 24 hours	0.96	2.42	86.2
concentration: 81.9 (µM), S9 metabolic activation: with S9, exposure time: 3-4 hours	0.36	3.46	103
concentration: 81.9 (µM), S9 metabolic activation: without S9, exposure time: 24 hours	0.78	2.06	83.6
concentration: 102 (µM), S9 metabolic activation: with S9, exposure time: 3-4 hours	0.32	2.48	99
concentration: 102 (µM), S9 metabolic activation: without S9, exposure time: 24 hours	0.88	1.94	85.2
concentration: 128 (µM), S9 metabolic activation: with S9, exposure time: 3-4 hours	0.48	2.86	111
concentration: 128 (µM), S9 metabolic activation: without S9, exposure time: 24 hours	1.16	2.38	88.7
concentration: 160 (µM), S9 metabolic activation: with S9, exposure time: 3-4 hours	0.34	2.7	98
concentration: 160 (µM), S9 metabolic activation: without S9, exposure time: 24 hours	1.24	2.74	90.5
concentration: 200 (µM), S9 metabolic activation: with S9, exposure time: 3-4 hours	0.44	2.04	104
concentration: 200 (µM), S9 metabolic activation: without S9, exposure time: 24 hours	1.34	2.14	79.3
